This is one part of the list. Each Rep nickase domain was tested in vitro on the same pool of single strands for 1 h at 37 °C with 3 µM enzyme; only the middle of the 90-letter strands is printed. A value is the log2 ratio of uncut reads to the pool without enzyme; the lower, the more was cut; hits are not called. Counts are relative to all reads; where an enzyme cuts many sequences, the uncut ones exceed 0.
Legend:
Experiment in all cases: uncleaved DNA left, log2 of reads against the no-enzyme library (log2 ratio); higher = less cleavage (more negative = more Rep cleavage of the k-mer); sequences stand for … in CTCGTCCG…ACCGGAGA
[1] = system: T1, Rep nickase domain of Muscovy duck circovirus
T1 sequence (Rep 1-111, printed without the tag): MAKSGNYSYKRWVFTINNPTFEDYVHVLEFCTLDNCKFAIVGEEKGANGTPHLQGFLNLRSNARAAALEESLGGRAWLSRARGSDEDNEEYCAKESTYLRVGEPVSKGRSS
Protocol: (§1)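 A pool of 90-nt single-stranded DNAs with seven random bases just before the constant AC of the nick site (name = the seven bases) was cut by 3 µM recombinant His6-SUMO-tagged Rep nickase domain (300 nM DNA, 50 mM HEPES pH 8.0, 50 mM NaCl, 1 mM MnCl2, 1 h, 37 °C, three replicates). Uncut DNA was amplified and sequenced.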

[2] = system: T2, Rep nickase domain of banana bunchy top virus
T2 sequence (Rep 1-94, printed without the tag): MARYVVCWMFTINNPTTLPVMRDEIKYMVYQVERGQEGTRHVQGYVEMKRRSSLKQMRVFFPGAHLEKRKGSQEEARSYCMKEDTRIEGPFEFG
Protocol: as §1

[3] = system: T3, Rep nickase domain of cabbage leaf curl virus
T3 sequence (Rep 1-116, printed without the tag): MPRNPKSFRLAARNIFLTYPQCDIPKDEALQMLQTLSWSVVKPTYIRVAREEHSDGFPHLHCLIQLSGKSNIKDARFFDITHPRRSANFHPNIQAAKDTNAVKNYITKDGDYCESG
Protocol: as §1

[4] = system: T4, Rep nickase domain of chickpea chlorotic dwarf virus
T4 sequence (Rep 1-124, printed without the tag): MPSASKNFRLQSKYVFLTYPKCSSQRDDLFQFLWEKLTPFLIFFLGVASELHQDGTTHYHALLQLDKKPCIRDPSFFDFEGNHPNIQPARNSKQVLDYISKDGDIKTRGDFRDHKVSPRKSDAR
Protocol: as §1

[5] = system: T5, Rep nickase domain of faba bean necrotic yellows virus
T5 sequence (Rep 1-98, printed without the tag): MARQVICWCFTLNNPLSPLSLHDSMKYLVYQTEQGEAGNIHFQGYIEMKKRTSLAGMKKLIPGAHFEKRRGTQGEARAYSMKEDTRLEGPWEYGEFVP
Protocol: as §1

[6] = system: T6, Rep nickase domain of maize striate mosaic virus
T6 sequence (Rep 1-117, printed without the tag): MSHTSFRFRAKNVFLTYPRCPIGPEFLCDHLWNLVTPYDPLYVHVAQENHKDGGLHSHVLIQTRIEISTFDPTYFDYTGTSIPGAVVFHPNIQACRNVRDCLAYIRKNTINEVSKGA
Protocol: as §1

[7] = system: T7, Rep nickase domain of porcine circovirus 2
T7 sequence (Rep 2-116, printed without the tag): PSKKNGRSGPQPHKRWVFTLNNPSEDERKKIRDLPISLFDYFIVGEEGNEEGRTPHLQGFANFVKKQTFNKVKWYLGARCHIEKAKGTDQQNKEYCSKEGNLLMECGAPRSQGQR
Protocol: as §1

[8] = system: T8, Rep nickase domain of tomato golden mosaic virus
T8 sequence (Rep 1-124, printed without the tag): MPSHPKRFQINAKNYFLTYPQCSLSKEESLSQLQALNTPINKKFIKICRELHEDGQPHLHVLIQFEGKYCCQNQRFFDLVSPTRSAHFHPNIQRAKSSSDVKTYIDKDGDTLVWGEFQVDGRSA
Protocol: as §1

[9] = system: T9, Rep nickase domain of tomato yellow leaf curl virus
T9 sequence (Rep 1-136, printed without the tag): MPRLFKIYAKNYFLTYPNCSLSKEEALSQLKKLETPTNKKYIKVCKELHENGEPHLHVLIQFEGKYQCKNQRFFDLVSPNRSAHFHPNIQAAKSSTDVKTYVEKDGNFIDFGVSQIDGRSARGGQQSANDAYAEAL
Protocol: as §1

[10] = system: T10, Rep nickase domain of wheat dwarf virus
T10 sequence (Rep 1-137, printed without the tag): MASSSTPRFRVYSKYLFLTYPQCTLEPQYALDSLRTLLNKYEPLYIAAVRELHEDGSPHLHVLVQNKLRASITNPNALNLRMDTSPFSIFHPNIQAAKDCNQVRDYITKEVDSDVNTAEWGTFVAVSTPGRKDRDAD
Protocol: as §1

Sequence	uncleaved DNA left (log2) [1]	uncleaved DNA left (log2) [2]	uncleaved DNA left (log2) [3]	uncleaved DNA left (log2) [4]	uncleaved DNA left (log2) [5]	uncleaved DNA left (log2) [6]	uncleaved DNA left (log2) [7]	uncleaved DNA left (log2) [8]	uncleaved DNA left (log2) [9]	uncleaved DNA left (log2) [10]
TTTGCGG	0.0644	-0.0394	-0.13	-0.128	-0.0191	-0.307	0.0481	0.0305	0.0243	-0.0195
GCAGGTT	0.0394	0.0161	0.325	0.542	-0.00904	1.27	0.0919	0.121	0.00389	-0.0448
AAGTTCA	-0.0255	-0.147	-0.134	-2.14	-0.206	-0.444	-3.21	-0.0613	0.0152	0.0396
CCCGTAC	0.0505	-0.0223	0.0584	-0.556	0.0669	-0.559	0.123	0.0503	0.023	-0.153
CATAGAT	0.118	0.0098	0.158	0.0618	0.0658	0.565	0.00522	0.159	0.00843	0.0367
ATATCGG	0.132	0.112	0.507	1.44	0.1	1.55	0.163	0.0588	0.026	0.0729
CTCCAAA	0.0489	-0.00731	0.103	-0.0578	0.0238	-0.663	0.0564	-0.134	0.0224	0.0101
TCACCAA	-0.0558	-0.0346	0.00833	-0.49	0.0698	-0.371	-0.26	-0.0123	-0.0623	0.0568
TAGAACC	-0.0649	0.111	0.148	-0.423	-0.0817	0.0178	-0.521	-0.126	0.061	0.0196
GTCTAAA	0.227	0.111	0.372	1.02	0.167	1.8	0.068	0.222	0.0968	0.224
GGCCTCC	-0.025	-0.0623	0.239	0.58	-0.00773	1.03	-0.0669	-0.0123	0.0574	0.0376
ACCAGTC	-0.00137	-0.0843	-0.422	-0.418	-0.00729	-1.33	-0.0479	-0.0306	-0.0836	-0.196
GACTAAA	0.0787	-0.0249	0.121	0.468	0.101	0.619	-0.748	0.0617	-0.0388	0.0513
TATCCCA	-0.0487	-0.0363	0.0606	-2.31	-0.0654	-0.236	-0.988	-0.122	-0.0661	-0.0124
ATAGGTC	0.0546	-0.00688	0.299	0.837	-0.0365	0.656	-0.00308	0.171	0.0304	0.0491
TCCATAG	0.104	0.0224	-0.744	-0.626	0.065	-1.23	0.149	0.17	0.189	-0.0349
TTCTATA	-0.0519	-0.0637	0.157	-1.52	0.0107	0.0776	-0.225	-0.0951	0.178	-0.021
CTATTTG	0.0379	0.0522	-0.727	-0.534	0.0554	-1.07	0.143	-0.0175	0.0665	-0.0632
GGCACCT	0.0548	-0.0345	0.573	1.07	0.0269	1.86	0.0464	0.00209	0.0793	0.103
TTGGATT	0.0513	-0.0822	0.0612	-0.22	-0.0468	1.19	-0.182	-0.073	-0.0716	-0.124

Sequence	uncleaved DNA left (log2) [1]	uncleaved DNA left (log2) [2]	uncleaved DNA left (log2) [3]	uncleaved DNA left (log2) [4]	uncleaved DNA left (log2) [5]	uncleaved DNA left (log2) [6]	uncleaved DNA left (log2) [7]	uncleaved DNA left (log2) [8]	uncleaved DNA left (log2) [9]	uncleaved DNA left (log2) [10]
ACATTTT	-3.34	-0.082	-0.644	-2.77	-0.0262	-0.972	-3.41	-0.0955	-0.161	-0.113
CCTTGGG	-0.191	-0.151	-0.928	-0.633	-0.0266	-1.29	-0.0654	-0.155	-0.118	-0.159
GAAAGAG	0.134	0.0784	-0.234	-0.124	0.116	-0.681	0.249	0.0709	0.118	0.0882
AGGGGCC	0.0258	0.0664	0.367	1.1	-0.0197	1.09	0.19	0.0176	0.0618	-0.0169
TACTTCC	-0.299	-0.0249	-0.0831	-1.38	0.0573	-0.497	-1.36	-0.161	-0.0219	0.0434
ATTTCGC	0.123	-0.0527	-0.611	-0.761	0.035	-1.12	0.17	0.00164	0.0557	-0.0159
CCTCAAA	-0.096	-0.177	-0.0994	-0.298	-0.0414	-0.707	-0.0579	-0.0715	-0.189	-0.0436
TCATGAC	-0.0011	-0.0739	-0.0166	0.0635	-0.00299	-0.432	0.0612	0.055	-0.0076	-0.0252
CTTAGAA	0.209	0.243	0.175	0.116	0.191	-0.614	0.0751	0.138	0.14	0.211
ACACTCT	0.094	-0.012	-0.366	-2.53	-0.0267	-0.811	-0.076	0.0924	-0.059	-0.0965
CTTTATA	-0.0858	0.0935	-0.196	-1.86	0.16	-0.721	-0.4	-0.052	-0.0282	0.0203
GGATCAC	-0.00137	0.0739	0.611	1.48	-0.0616	1.96	0.179	-0.108	0.0808	0.109
TTCCCCC	-0.216	-0.0714	0.0314	-0.33	-0.259	-0.342	-0.524	-0.265	-0.108	-0.0177
AATGAAT	0.0955	0.031	0.185	0.707	-0.007	1.17	-0.0151	0.0707	-0.127	0.0797
GAACGAC	-0.0655	0.0534	0.281	0.612	0.0302	0.642	0.181	0.00508	-0.0207	0.0578
TCGCCAG	0.0193	0.105	-0.00039	0.00226	0.121	-0.442	0.174	-0.0571	0.104	-0.0242
GGTCAGA	0.025	0.167	0.756	1.74	-0.0124	2.06	0.178	0.00537	0.0446	0.168
GCGAATA	0.0164	0.137	-0.00374	0.379	0.00464	0.84	0.0751	0.0528	0.0883	0.055
GATCGAT	-0.0355	-0.0663	0.141	0.542	0.0146	0.883	-0.103	0.0192	-0.0137	0.0686
GTGCTGT	0.0482	0.00404	0.233	0.872	0.0806	1.06	0.0687	0.0394	-0.0137	-0.0315

Sequence	uncleaved DNA left (log2) [1]	uncleaved DNA left (log2) [2]	uncleaved DNA left (log2) [3]	uncleaved DNA left (log2) [4]	uncleaved DNA left (log2) [5]	uncleaved DNA left (log2) [6]	uncleaved DNA left (log2) [7]	uncleaved DNA left (log2) [8]	uncleaved DNA left (log2) [9]	uncleaved DNA left (log2) [10]
CACCGCG	-0.0666	-0.0255	-0.893	-0.093	-0.0551	-0.675	0.0529	-0.0729	-0.0879	-0.253
AGCAATC	0.0704	0.0758	0.0627	0.415	0.0479	0.0285	-0.0224	0.0419	0.0513	0.081
CTTCATC	-0.0514	0.0588	0.0387	-0.239	-0.187	-0.843	0.084	-0.0571	0.0351	0.0699
GTAAATA	0.0423	0.0433	0.219	0.608	0.00152	1.53	0.086	0.0741	0.109	0.113
CGGCCCG	0.0424	-0.0578	-0.625	-0.269	-0.0753	-0.692	-0.0104	-0.143	-0.0834	-0.17
TACCAGA	0.0054	0.133	-0.0591	-1.13	0.188	-0.817	-0.359	0.0982	0.129	-0.0319
TCTGCTA	0.0793	0.053	-0.0312	-0.935	0.108	-0.792	-0.0292	-0.0116	0.0795	0.0445
ACAAGAA	0.0264	0.0972	-0.104	0.015	0.125	-0.761	0.1	0.05	-0.0921	0.0574
ATGTAGC	0.0505	-0.0351	-0.503	-0.59	0.0209	-1.07	0.181	0.185	0.158	-0.0882
TTCTAAG	0.259	0.157	-0.757	-0.407	0.105	-1.15	0.142	0.0284	0.13	0.0661
TTTGCTA	-0.0691	-0.0697	-0.437	-1.04	0.0689	-1.16	-0.15	-0.0994	0.00882	-0.0957
TTGGCCC	0.0162	0.0767	0.217	0.0823	0.0411	-0.224	-0.0925	-0.132	0.0836	0.0212
AATAAGC	0.0979	0.00403	0.025	-0.402	0.115	-1.04	0.215	0.165	0.069	0.0439
GGCGGGG	0.138	0.00468	0.551	0.951	-0.0119	1.63	0.187	0.0985	-0.109	0.00427
GATACGG	0.114	0.118	0.57	1.61	-0.0271	2.05	0.191	0.156	-0.00493	0.0983
CTCCTGG	-0.188	-0.0716	-0.0746	0.0533	-0.193	-0.359	-0.0491	-0.125	-0.148	0.0208
CGACCAC	-0.0835	0.0137	0.12	0.393	0.0271	0.293	-0.0516	-0.0958	0.059	0.013
AGGCACT	0.076	0.0819	0.502	0.728	0.0242	1.49	0.148	0.0076	0.061	0.077
CGTAGAC	-0.112	-0.151	0.15	0.419	-0.115	0.208	-0.0407	-0.156	-0.159	-0.0289
ATTCGTC	-0.0925	-0.107	-0.348	-0.498	-0.0269	-1.14	0.0654	-0.131	-0.0189	-0.128
